# Experimental data published in the supplement of paper PMC9446081.
# Screen size: about 39,000 compounds; about 220 (0.56%) showed activity. The list shows a part of the results.
# Tested on: Escherichia coli K-12 BW25113
# Assay: relative growth (OD600 normalised to plate interquartile mean) (fraction); higher = less growth inhibition, active = 0.2 or less
# Details: 50 µM; LB; incubation time: overnight (16-24 h)
# 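Note: static incubation at 37 °C against the wild-type strain, values averaged over two biological replicates.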
row,Compound,relative growth
1,Cc1noc(C)c1NC(=O)Nc1cccc2c1O[C@@H](CN(C)Cc1ccc(C(=O)Nc3ccccc3N)cc1)[C@@H](C)CN([C@@H](C)CO)C2=O,inactive: 0.998
2,COc1ccc(CCN2C(=O)[C@@]3(Cc4ccccc42)c2ccccc2C(=O)N(C2CCCCC2)[C@H]3c2ccc(CO)cc2)cc1,inactive: 0.975
3,COc1ccc(S(=O)(=O)N(C)C[C@@H]2OCCCC[C@H](C)Oc3ccc(NC(=O)NC4CCCCC4)cc3C(=O)N([C@@H](C)CO)C[C@@H]2C)cc1,inactive: 1.01
4,C#CC1(OC(C)=O)CCC2C3CCC4=CC(=NO)CCC4C3CCC21CC (centres undefined),inactive: 0.916
5,CCCCOC(=O)CCCCCCC(=O)OCCCC,inactive: 0.919
6,CO[C@@H]1CN(C)C(=O)c2cc(NS(=O)(=O)c3cn(C)cn3)ccc2OC[C@@H](C)N(Cc2cccc(F)c2)C[C@H]1C,inactive: 1.01
7,COc1ccc(S(=O)(=O)N(C)C[C@@H]2Oc3ccc(NS(=O)(=O)c4cccs4)cc3C(=O)N([C@@H](C)CO)C[C@H]2C)cc1,inactive: 0.905
8,Cc1noc(C)c1NC(=O)Nc1ccc2c(c1)CC(=O)N([C@H](C)CO)C[C@@H](C)[C@@H](CN(C)S(=O)(=O)c1ccccc1)O2,inactive: 0.993
9,CC(C)CC#Cc1ccc2c(c1)O[C@H](CN(C)C(=O)c1ccncc1)[C@@H](C)CN([C@@H](C)CO)S2(=O)=O,inactive: 0.991
10,O=C(Cn1ccc([N+](=O)[O-])n1)n1cccn1,inactive: 0.987
11,COc1ccc2c3c(n(c2c1)C)[C@@H](CO)N(C[C@]13CN(C1)C(=O)CN(C)C)C(=O)CN(C)C,inactive: 1.02
12,Cc1noc(C)c1NC(=O)N(C)C[C@@H]1OCCCC[C@@H](C)Oc2ccc(NS(=O)(=O)c3ccc(Cl)cc3)cc2C(=O)N([C@H](C)CO)C[C@@H]1C,inactive: 0.999
13,C[C@@H]1CN([C@H](C)CO)C(=O)Cc2cc(NC(=O)Cn3cnnn3)ccc2O[C@@H]1CN(C)C(=O)NC1CCCCC1,inactive: 1.01
14,C[C@@H]1CN([C@H](C)CO)C(=O)Cc2cc(NS(=O)(=O)c3ccc(F)cc3)ccc2O[C@H]1CN(C)Cc1ccncc1,inactive: 1
15,COc1cc(-c2cc(=O)c3c(=O)cc(-c4ccc(O)c(OC)c4)n(CCc4ccccc4)c3s2)ccc1O,inactive: 1.03
16,C[C@@H]1CN([C@@H](C)CO)C(=O)c2cc(NC(=O)c3ccccc3)ccc2O[C@@H](C)CCCCO[C@@H]1CN(C)Cc1ccncc1,inactive: 1.01
17,COC1CC(OC2C(C)=CCC3CC(CC4(CCC(C)C(C5CCCCC5)O4)O3)OC(=O)C3C=C(C)C(=NO)C4OCC(=CC=CC2C)C34O)OC(C)C1O (centres undefined),inactive: 0.846
18,CCC[C@@H](O)C#Cc1cnc2c(c1)C(=O)N([C@H](C)CO)C[C@H](C)[C@H](CN(C)S(=O)(=O)c1cn(C)cn1)O2,inactive: 0.999
19,Cc1ccc(S(=O)(=O)N(C)C[C@@H]2OCCCC[C@H](C)Oc3ccc(NC(=O)Nc4ccc(C(F)(F)F)cc4)cc3C(=O)N([C@H](C)CO)C[C@H]2C)cc1,inactive: 1.03
20,O=c1[nH]c(=O)c2ccccc2o1,inactive: 1.03

row,Compound,relative growth
1,COc1ccc(S(=O)(=O)Nc2ccc3c(c2)C(=O)N([C@@H](C)CO)C[C@@H](C)[C@@H](CN(C)C(=O)NC2CCCCC2)OCCCC[C@H](C)O3)cc1,inactive: 0.999
2,c1ccc2c(-c3ccncc3)c[nH]c2c1,inactive: 0.854
3,COc1cc(C=CC(=O)O)cc(OC)c1OC,inactive: 1.07
4,C[C@@H]1CN([C@H](C)CO)S(=O)(=O)c2ccc(Br)cc2O[C@H]1CN(C)C(=O)c1ccc2c(c1)OCO2,inactive: 1
5,C[C@H](CO)N1C[C@H](C)[C@@H](CN(C)Cc2ccc(Cl)c(Cl)c2)Oc2ccc(NS(=O)(=O)c3cccs3)cc2CC1=O,inactive: 0.947
6,COc1ccc(CN(C)C[C@H]2OCCCC[C@@H](C)Oc3ccc(NS(=O)(=O)c4ccccc4)cc3C(=O)N([C@@H](C)CO)C[C@H]2C)cc1,inactive: 1.03
7,COC(=O)CN[C@H]1CCS(=O)(=O)C1,inactive: 0.995
8,COc1ccc(S(=O)(=O)Nc2ccc3c(c2)CC(=O)N([C@@H](C)CO)C[C@@H](C)[C@@H](CN(C)Cc2ccc(C(=O)O)cc2)O3)cc1,inactive: 1.01
9,COc1ccc(CN(C)C[C@@H]2OCCCC[C@H](C)Oc3ccc(NS(=O)(=O)c4ccc(F)cc4)cc3C(=O)N([C@H](C)CO)C[C@@H]2C)cc1,inactive: 0.998
10,O=C(C[C@H]1C[C@H]2c3cc(NC(=O)Cc4ccncc4)ccc3O[C@H]2[C@@H](CO)O1)NCc1cccc(F)c1,inactive: 1.04
11,CO[C@H]1CN(C)C(=O)c2ccc(NC(=O)Nc3ccccc3)cc2OC[C@@H](C)N(C(=O)CN(C)C)C[C@H]1C,inactive: 0.982
12,Cc1ccc(S(=O)(=O)N(C)C[C@@H]2OCCCC[C@@H](C)Oc3ccc(NS(=O)(=O)c4ccc(F)cc4)cc3C(=O)N([C@@H](C)CO)C[C@@H]2C)cc1,inactive: 1.02
13,C[C@H](CO)N1C[C@H](C)[C@H](CN(C)C(=O)Nc2cccc3ccccc23)Oc2ccc(NC(=O)Nc3ccccc3)cc2CC1=O,inactive: 0.992
14,C[C@H](CO)N1C[C@H](C)[C@H](CN(C)C(=O)Nc2ccccc2)Oc2ccc(NC(=O)CCCCCC(=O)Nc3ccccc3N)cc2CC1=O,inactive: 0.962
15,COc1ccc(CN(C)C[C@H]2OCCCC[C@H](C)Oc3ccc(NC(=O)Nc4ccccc4)cc3C(=O)N([C@H](C)CO)C[C@H]2C)cc1,inactive: 0.99
16,O=C(c1cccs1)N1c2ccccc2Sc2ccccc21,inactive: 1.02
17,C[C@@H]1CN([C@H](C)CO)C(=O)c2cc(NS(=O)(=O)c3ccc(F)cc3)ccc2O[C@@H](C)CCCCO[C@@H]1CN(C)Cc1ccc2c(c1)OCO2,inactive: 0.995
18,Cc1cn(-c2cc(NC(=O)c3ccc(C)c(Nc4nccc(-c5cnccn5)n4)c3)cc(C(F)(F)F)c2)cn1,inactive: 0.96
19,Nc1ccc(S(=O)(=O)Nc2ccccn2)cc1,inactive: 0.965
20,C[C@H]1CCCCO[C@H](CN(C)C(=O)C2CCCCC2)[C@@H](C)CN([C@@H](C)CO)C(=O)c2cc(NS(=O)(=O)c3ccccc3)ccc2O1,inactive: 0.967

row,Compound,relative growth
1,Cc1ccc(S(=O)(=O)Nc2cccc3c2O[C@@H](CN(C)C(=O)Nc2cccc4ccccc24)[C@H](C)CN([C@@H](C)CO)C3=O)cc1,inactive: 0.993
2,Cc1c(C(=O)O)sc(=O)n1C,inactive: 1
3,C[C@@H]1CN([C@@H](C)CO)C(=O)c2cc(NC(=O)NC3CCCCC3)ccc2O[C@H]1CN(C)C(=O)Nc1ccc(C(F)(F)F)cc1,inactive: 0.961
4,COc1ccc(C#Cc2ccc3c(c2)[C@]2(C(=O)N3)[C@H](C(=O)N3CCc4cc(OC)c(OC)cc4C3)[C@H]3C(=O)O[C@H](c4ccccc4)[C@H](c4ccccc4)N3[C@@H]2c2ccc(O)cc2)cc1,inactive: 1.02
5,C[C@@H]1CN([C@H](C)CO)S(=O)(=O)c2ccc(C#Cc3ccncc3)cc2O[C@@H]1CN(C)C(=O)Nc1ccc2c(c1)OCO2,inactive: 1.02
6,CC(C)NC(=O)N(C)C[C@H]1Oc2ccc(NC(=O)NC3CCCCC3)cc2CC(=O)N([C@H](C)CO)C[C@H]1C,inactive: 0.992
7,C[C@@H]1CN([C@@H](C)CO)C(=O)c2cc(NC(=O)Nc3ccc(C(F)(F)F)cc3)ccc2O[C@H]1CN(C)C(=O)Nc1ccccc1,inactive: 1.05
8,C[C@@H]1CCCCO[C@H](CN(C)C(=O)Cc2ccccc2)[C@@H](C)CN([C@@H](C)CO)C(=O)c2cc(NC(=O)Cc3ccccc3)ccc2O1,inactive: 0.977
9,C[C@@H]1CN([C@@H](C)CO)C(=O)c2cccc(NS(=O)(=O)c3ccc(F)cc3)c2O[C@@H]1CN(C)CC1CC1,inactive: 1
10,O=C(O)CC[C@H](NC(=O)CCn1nnc2ccccc2c1=O)C(=O)O,inactive: 1.01
11,C[C@H](CO)N1C[C@H](C)[C@H](CN(C)S(C)(=O)=O)OCCCC[C@H](C)Oc2ccc(NC(=O)Nc3cccc4ccccc34)cc2C1=O,inactive: 1.03
12,CCCN(C)C[C@@H]1OCCCC[C@@H](C)Oc2ccc(NC(=O)Nc3ccc4c(c3)OCO4)cc2C(=O)N([C@H](C)CO)C[C@H]1C,inactive: 1.03
13,COc1ccc(NC(=O)Nc2ccc3c(c2)CC(=O)N([C@H](C)CO)C[C@@H](C)[C@@H](CN(C)C(=O)Nc2ccc(C(F)(F)F)cc2)O3)cc1,inactive: 1.01
14,COc1ccc(CN(C)C[C@H]2OCCCC[C@@H](C)Oc3ccc(NS(=O)(=O)c4ccc(C)cc4)cc3C(=O)N([C@H](C)CO)C[C@H]2C)cc1,inactive: 1.01
15,C[C@H](NC(=O)C[C@@H]1C[C@@H]2c3cc(NC(=O)Nc4ccc(C(F)(F)F)cc4)ccc3O[C@@H]2[C@@H](CO)O1)c1ccccc1,inactive: 1.08
16,C[C@@H]1CCCCO[C@@H](CN(C)Cc2ccc(C(F)(F)F)cc2)[C@@H](C)CN([C@H](C)CO)C(=O)c2cc(NC(=O)C3CCCCC3)ccc2O1,inactive: 0.987
17,COc1ccc(C#Cc2cnc3c(c2)C(=O)N([C@H](C)CO)C[C@H](C)[C@H](CN(C)C(=O)CN(C)C)O3)cc1,inactive: 0.978
18,C[C@H]1CN([C@@H](C)CO)C(=O)c2cc(NS(=O)(=O)c3ccc(Cl)cc3)ccc2O[C@H]1CN(C)Cc1ccc(C(F)(F)F)cc1,inactive: 1.03
19,COc1ccc(S(=O)(=O)Nc2ccc3c(c2)CC(=O)N([C@@H](C)CO)C[C@@H](C)[C@H](CN(C)Cc2ccncc2)O3)cc1,inactive: 0.995
